Measurements as given in the supplement of paper PMC12217912.
The list shows a part of the results. The full chains were built here from the parent and the listed change. Values near 0.05 are background.

B1: TEV protease; numbered along this chain (parent)
chain: MGESLFKGPRDYNPISSSICHLTNESDGHTTSLYGIGFGPFIITNKHLFRRNNGTLVVQSLHGVFKVKDTTTLQQHLVDGRDMIIIRMPKDFPPFPQKLKFREPQREERICLVTTNFQTKSMSSMVSDTSCTFPSGDGIFWKHWIQTKDGQCGSPLVSTRDGFIVGIHSASNFTNTNNYFTSVPKNFMELLTNQEAQQWVSGWRLNADSVLWGGHKVFMVKPEEPFQPVKEATQL

Variants of: B1
Experiment: raw area under fraction-flipped curve 0-4 h after induction (AUC4h, not background-subtracted), DNA-recorder readout of cleavage of the substrate (dimensionless); higher = more cleavage of the substrate by the protease variant
Details: temperature: 34 °C; time window: 0-4 h after rhamnose induction
Experimental: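 In vivo DNA recorder in E. coli TOP10(DE3) ΔrhaA at 34 °C. Each TEVp single-site mutant (parent TEVp 0) is paired with a single-site variant of the 7-mer TEVs (canonical ENLYFQ|S). The substrate sits between flexible linkers in a Bxb1-sfGFP-TEVs-SsrA fusion, so cleavage stabilises Bxb1 and speeds flipping of a recombination array, read by NGS. The value is the raw area under the fraction-flipped curve over 0-4 h after rhamnose induction (AUC4h), with ≥20 reads per time point. It is not background-subtracted; inactive controls average about 0.047.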
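Further: Bxb1 expression induced with 0.2% (w/v) L-rhamnose at OD600 near 0.5, cultures sampled hourly, flipped fraction per protease–substrate barcode pair counted by paired-end Illumina sequencing.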

Variant | area with substrate CNLYFQS | area with substrate DNLYFQS | area with substrate HNLYFQS | area with substrate INLYFQS | area with substrate KNLYFQS | area with substrate LNLYFQS | area with substrate NNLYFQS | area with substrate PNLYFQS | area with substrate SNLYFQS | area with substrate TNLYFQS | area with substrate VNLYFQS | area with substrate WNLYFQS | area with substrate YNLYFQS | area with substrate FNLYFQS | area with substrate GNLYFQS | area with substrate MNLYFQS | area with substrate RNLYFQS | area with substrate QNLYFQS
T31D | 0.0685 | 0.0794 | 0.0573 | 0.065 | 0.0765 | 0.0603 | 0.0491 | 0.06 | 0.0584 | 0.0597 | 0.0474 | 0.0597 | 0.055 | – | – | – | – | –
T31K | 0.0627 | 0.0872 | – | – | 0.0574 | – | 0.0612 | 0.0599 | – | 0.0544 | 0.0625 | 0.0647 | – | 0.0744 | 0.0846 | 0.0553 | 0.0658 | –
T31N | 0.0623 | 0.0682 | 0.0567 | – | 0.0649 | 0.0726 | 0.0626 | 0.0652 | 0.0716 | 0.0632 | 0.0625 | 0.0591 | 0.0572 | 0.0534 | – | 0.0574 | – | 0.0446
T31S | 0.0658 | 0.0599 | – | 0.063 | – | 0.0685 | 0.0621 | 0.0655 | 0.0572 | – | 0.07 | 0.0661 | 0.0697 | – | 0.0612 | – | – | –
G35W | 0.0486 | 0.0555 | 0.0449 | 0.0542 | – | 0.0496 | – | 0.0513 | – | 0.0552 | 0.0228 | 0.0477 | 0.0501 | 0.048 | – | – | – | –
I36F | 0.0514 | 0.0673 | 0.0562 | – | 0.0625 | – | – | 0.0606 | – | 0.0632 | 0.055 | 0.0545 | 0.0578 | 0.0641 | – | – | 0.0682 | 0.0491
R10Q | 0.0644 | 0.1 | 0.0703 | 0.0679 | 0.068 | 0.0513 | – | 0.0604 | – | 0.0697 | – | 0.065 | 0.0563 | 0.0601 | 0.0721 | 0.0673 | 0.0543 | –
R10H | 0.067 | 0.0679 | 0.082 | 0.102 | – | 0.0667 | 0.0753 | 0.0602 | 0.0564 | 0.0691 | – | 0.0591 | – | 0.0579 | 0.0608 | 0.0509 | 0.0684 | –
R10E | 0.0637 | 0.0316 | 0.0665 | 0.0554 | – | 0.0659 | – | 0.0623 | 0.0785 | 0.0658 | – | – | – | – | 0.0357 | – | 0.0594 | –
C20P | 0.0464 | 0.0485 | 0.0458 | 0.0317 | 0.0531 | – | 0.0468 | 0.0493 | 0.0486 | 0.0666 | 0.065 | 0.0482 | 0.0543 | 0.0355 | 0.0537 | 0.0471 | – | 0.0547
E25L | 0.0752 | 0.0677 | 0.0569 | 0.0703 | 0.0746 | 0.0666 | 0.0854 | 0.0676 | 0.0604 | 0.0695 | – | 0.0735 | 0.0614 | – | 0.0409 | 0.0623 | 0.0603 | 0.0757
E25D | 0.0652 | 0.0826 | – | 0.0756 | 0.0675 | 0.0649 | 0.0605 | 0.0674 | 0.0601 | 0.0539 | 0.0581 | 0.0452 | 0.0435 | 0.0625 | – | 0.0651 | – | 0.0322
E25V | 0.0719 | 0.0783 | 0.073 | – | 0.072 | 0.0533 | 0.0649 | 0.0593 | 0.0728 | 0.0682 | 0.0644 | 0.114 | 0.0556 | – | 0.0738 | 0.0691 | – | 0.0694
Y12G | 0.0435 | 0.078 | 0.0773 | 0.0651 | 0.0742 | 0.0589 | – | 0.059 | 0.0751 | 0.0628 | 0.0678 | 0.0623 | 0.0558 | 0.0693 | – | – | 0.0611 | 0.0709
I15H | 0.0667 | 0.0556 | 0.0696 | 0.0655 | – | 0.0383 | 0.0629 | 0.0768 | – | 0.0608 | 0.0691 | 0.0554 | 0.0683 | 0.0704 | – | – | – | –
S4T | 0.0724 | 0.0072 | 0.0677 | – | – | – | – | – | 0.0626 | 0.0651 | – | 0.0461 | 0.0646 | 0.0645 | – | 0.0779 | – | –
S4W | 0.0547 | 0.0705 | 0.0647 | 0.0912 | 0.0769 | 0.0635 | 0.0623 | 0.0749 | – | 0.0638 | – | 0.058 | 0.0654 | – | 0.0772 | 0.0652 | – | –
H29V | 0.074 | 0.0993 | 0.0674 | 0.101 | 0.0066 | 0.0633 | 0.0721 | 0.0591 | 0.0628 | 0.0422 | 0.068 | 0.0612 | – | – | 0.0663 | 0.0641 | – | –
H29K | 0.0613 | 0.0657 | – | – | 0.035 | – | – | – | – | – | – | 0.0298 | – | 0.0641 | – | – | – | –
H29S | 0.0749 | 0.0875 | 0.0762 | 0.0744 | – | 0.0688 | 0.0611 | 0.0624 | 0.0622 | 0.0657 | – | 0.0514 | 0.046 | – | – | 0.0663 | – | 0.077
S26D | 0.0468 | 0.0813 | 0.0679 | – | 0.059 | 0.0677 | 0.06 | 0.0753 | – | 0.0646 | 0.0433 | 0.0545 | 0.0618 | 0.0611 | – | 0.0407 | 0.0497 | 0.0581
L33G | 0.0631 | 0.066 | – | 0.0981 | 0.0594 | 0.0602 | 0.0654 | – | 0.0496 | 0.0586 | 0.0597 | 0.0797 | – | – | 0.075 | – | 0.0608 | –
L33W | 0.0588 | 0.0505 | 0.0554 | 0.0578 | 0.0559 | 0.0605 | 0.0635 | 0.0606 | 0.0538 | 0.0374 | 0.049 | 0.057 | 0.0525 | 0.0496 | 0.0794 | 0.0638 | – | –
N13Y | 0.0657 | 0.0937 | – | 0.0584 | – | 0.0797 | 0.0887 | 0.0626 | 0.173 | – | 0.0677 | 0.0397 | – | – | 0.0845 | – | – | 0.0565
D27L | 0.0616 | 0.0643 | 0.0782 | 0.0669 | 0.0636 | 0.0552 | 0.0542 | 0.0642 | 0.0605 | 0.055 | – | 0.0921 | 0.0434 | 0.0635 | 0.0628 | 0.0684 | 0.0543 | –
P9K | 0.0565 | 0.0675 | 0.0528 | 0.0623 | 0.0657 | 0.0723 | 0.0814 | – | – | – | 0.078 | 0.0498 | 0.061 | 0.0546 | – | – | 0.0546 | –
P9Y | 0.0633 | 0.118 | 0.0659 | 0.0537 | – | – | – | – | 0.0776 | 0.0695 | – | – | – | – | 0.0849 | – | 0.0655 | –
